In all, about 81,000 sequences were measured (“one-hybrid fitness for binding NBS DNA”: median about -0.1, highest 2% from about 0.36 on). Some of the results follow.
B1: Caulobacter ParB omega fusion; a variant is named by its letters at X, in order, B8GW30 (parent)
chain: MESVVVGEPGMSEGRRGLGRGLSALLGEVDAAPAQAPGEQLGGSREAPIEILQRNPDQPRRTFREEDLEDLSNSIREKGVLQPILVRPSPDTAGEYQIVAGERAWRAAQRAGLKTVPIMVRELDDLAVLEIGIIENVQRADLNVLEEALSYKVLMEKFERTQENIAQTIGKSXSHVANXMRLLXLPDEVQSYLVSGELTAXHARAIAAAADPVALAKQIIEGGLSVRETEALARKAPNLSAGKSKGGRPPRVKDTDTQALESDLSSVLGLDVSIDHRGSTGTLTITYATLEQLDDLCNRLTRGI

Variants of: B1
Test: one-hybrid fitness for binding NBS DNA (the Noc-binding site; scaled: cognate 1, non-cognate 0); higher = stronger binding
Conditions: with NBS DNA site
Procedure, shortened: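 In E. coli USO, a HIS3 reporter with its site placed 19 bp from the promoter was used to select Caulobacter ParB variants randomised at four specificity codons. Growth lasted 48 hours at 37°C on histidine-free M9 containing 0.1 mM IPTG and 5 mM 3-AT. Fitness was taken as the log change in variant-to-wild-type read ratio from Illumina sequencing of pre- and post-selection plasmids, rescaled between the non-cognate and cognate sites.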

Variant	one-hybrid fitness for binding NBS DNA
IRVT	≤ 0.2
SYLL	≤ 0.2
FDAF	≤ 0.2
RPGC	≤ 0.2
SAVK	≤ 0.2
TLQD	≤ 0.2
QCCL	≤ 0.2
LCYK	≤ 0.2
SGES	≤ 0.2
RWFT	≤ 0.2
KTIG	≤ 0.2
PRNP	≤ 0.2
EVYG	≤ 0.2
CGQH	≤ 0.2
QHKV	0.44
LCNE	≤ 0.2
SGDI	≤ 0.2
DNRK	≤ 0.2
PPYC	≤ 0.2
GLRN	≤ 0.2
PFDG	≤ 0.2

Variant	one-hybrid fitness for binding NBS DNA
YRKS	≤ 0.2
AEWT	≤ 0.2
AAPI	≤ 0.2
RDEI	≤ 0.2
ASQI	≤ 0.2
KEHS	≤ 0.2
DRHR	≤ 0.2
GFRT	≤ 0.2
DWVR	≤ 0.2
INMD	≤ 0.2
PYHI	≤ 0.2
TDVM	≤ 0.2
IQFV	≤ 0.2
YWDR	≤ 0.2
HFLC	≤ 0.2
TCSA	≤ 0.2
WAQL	≤ 0.2
REPG	≤ 0.2
FRHM	≤ 0.2
KLMS	≤ 0.2
YHQL	≤ 0.2

Variant	one-hybrid fitness for binding NBS DNA
PYAM	≤ 0.2
DVIC	≤ 0.2
QCCG	≤ 0.2
PKKY	≤ 0.2
RIPR	≤ 0.2
ACWN	≤ 0.2
WWTS	≤ 0.2
FEHS	≤ 0.2
SFKR	0.246
ILPI	≤ 0.2
QFLI	≤ 0.2
TPVA	≤ 0.2
AHRI	≤ 0.2
AYMS	≤ 0.2
WVNV	≤ 0.2
CYYS	≤ 0.2
ASYW	≤ 0.2
LAIM	≤ 0.2
AMKS	≤ 0.2
YPCR	≤ 0.2
GNHC	≤ 0.2

Variant	one-hybrid fitness for binding NBS DNA
QIKT	0.574
QDPI	≤ 0.2
RSNT	0.503
QQVF	≤ 0.2
SSWA	≤ 0.2
CTAS	≤ 0.2
DRRY	≤ 0.2
QGMA	≤ 0.2
MSMG	≤ 0.2
SRLP	≤ 0.2
DLVE	≤ 0.2
QLDC	≤ 0.2
GPNL	≤ 0.2
TDQW	≤ 0.2
LNAR	≤ 0.2
SGRS	≤ 0.2
PSIN	≤ 0.2
REKM	≤ 0.2
VVAS	≤ 0.2
PMIR	≤ 0.2
IGGG	≤ 0.2

Reference: a collection of fitness landscapes (doi:10.1016/j.celrep.2020.107928)
